The supplement of paper PMC7826260
The other results are listed elsewhere or left out. Each Rep nickase domain was tested in vitro on the same pool of single strands for 1 h at 37 °C with 3 µM enzyme; only the middle of the 90-letter strands is printed. Values are log2 of uncut reads against the no-enzyme pool; strong cutting gives strongly negative numbers. There is no active / inactive call. Counts are relative to all reads, so uncut sequences can rise above 0 when many others are cut.

Tests used:
Test in all cases: uncleaved DNA left, log2 of reads against the no-enzyme library (log2 ratio); higher = less cleavage (more negative = more Rep cleavage of the k-mer); sequences stand for … in CTCGTCCG…ACCGGAGA
[1] = tested on: T1, Rep nickase domain of Muscovy duck circovirus
T1 sequence (residues 1-111 of Rep, tag left off): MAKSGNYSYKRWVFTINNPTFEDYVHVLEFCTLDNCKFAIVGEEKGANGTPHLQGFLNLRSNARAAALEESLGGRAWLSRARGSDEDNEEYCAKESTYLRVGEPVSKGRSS
Experimental: (§1)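 A pool of 90-nt single-stranded DNAs with seven random bases just before the constant AC of the nick site (name = the seven bases) was cut by 3 µM recombinant His6-SUMO-tagged Rep nickase domain (300 nM DNA, 50 mM HEPES pH 8.0, 50 mM NaCl, 1 mM MnCl2, 1 h, 37 °C, three replicates). Uncut DNA was amplified and sequenced.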

[2] = tested on: T2, Rep nickase domain of banana bunchy top virus
T2 sequence (residues 1-94 of Rep, tag left off): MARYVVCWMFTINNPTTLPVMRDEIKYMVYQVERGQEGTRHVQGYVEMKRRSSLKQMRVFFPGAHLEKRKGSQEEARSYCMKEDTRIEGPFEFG
Experimental: as §1

[3] = tested on: T3, Rep nickase domain of cabbage leaf curl virus
T3 sequence (residues 1-116 of Rep, tag left off): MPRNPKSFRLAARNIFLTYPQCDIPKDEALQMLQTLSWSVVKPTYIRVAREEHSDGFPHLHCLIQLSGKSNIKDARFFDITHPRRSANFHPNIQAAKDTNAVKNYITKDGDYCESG
Experimental: as §1

[4] = tested on: T4, Rep nickase domain of chickpea chlorotic dwarf virus
T4 sequence (residues 1-124 of Rep, tag left off): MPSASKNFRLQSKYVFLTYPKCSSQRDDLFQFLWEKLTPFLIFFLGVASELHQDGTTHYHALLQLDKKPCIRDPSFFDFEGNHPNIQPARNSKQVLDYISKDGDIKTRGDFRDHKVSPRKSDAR
Experimental: as §1

[5] = tested on: T5, Rep nickase domain of faba bean necrotic yellows virus
T5 sequence (residues 1-98 of Rep, tag left off): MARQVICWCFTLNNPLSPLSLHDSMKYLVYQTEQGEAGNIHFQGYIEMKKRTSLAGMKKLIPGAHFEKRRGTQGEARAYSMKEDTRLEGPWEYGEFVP
Experimental: as §1

[6] = tested on: T6, Rep nickase domain of maize striate mosaic virus
T6 sequence (residues 1-117 of Rep, tag left off): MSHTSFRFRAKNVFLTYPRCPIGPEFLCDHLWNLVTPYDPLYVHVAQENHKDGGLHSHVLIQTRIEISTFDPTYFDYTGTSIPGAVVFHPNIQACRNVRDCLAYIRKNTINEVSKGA
Experimental: as §1

[7] = tested on: T7, Rep nickase domain of porcine circovirus 2
T7 sequence (residues 2-116 of Rep, tag left off): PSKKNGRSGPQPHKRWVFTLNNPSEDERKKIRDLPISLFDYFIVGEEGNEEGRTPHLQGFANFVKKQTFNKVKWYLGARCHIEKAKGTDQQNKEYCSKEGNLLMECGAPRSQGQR
Experimental: as §1

[8] = tested on: T8, Rep nickase domain of tomato golden mosaic virus
T8 sequence (residues 1-124 of Rep, tag left off): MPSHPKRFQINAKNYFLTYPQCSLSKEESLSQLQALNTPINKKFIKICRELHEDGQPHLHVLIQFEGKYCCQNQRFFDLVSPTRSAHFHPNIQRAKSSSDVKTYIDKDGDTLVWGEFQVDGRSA
Experimental: as §1

[9] = tested on: T9, Rep nickase domain of tomato yellow leaf curl virus
T9 sequence (residues 1-136 of Rep, tag left off): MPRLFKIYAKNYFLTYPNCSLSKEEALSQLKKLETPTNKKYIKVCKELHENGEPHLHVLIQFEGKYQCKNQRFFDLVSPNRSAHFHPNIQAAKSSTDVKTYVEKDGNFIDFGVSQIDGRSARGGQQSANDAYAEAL
Experimental: as §1

[10] = tested on: T10, Rep nickase domain of wheat dwarf virus
T10 sequence (residues 1-137 of Rep, tag left off): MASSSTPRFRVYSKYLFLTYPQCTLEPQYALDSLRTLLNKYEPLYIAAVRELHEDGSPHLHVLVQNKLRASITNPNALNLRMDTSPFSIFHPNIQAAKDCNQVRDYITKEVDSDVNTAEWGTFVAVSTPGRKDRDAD
Experimental: as §1

Sequence | uncleaved DNA left (log2) [1] | uncleaved DNA left (log2) [2] | uncleaved DNA left (log2) [3] | uncleaved DNA left (log2) [4] | uncleaved DNA left (log2) [5] | uncleaved DNA left (log2) [6] | uncleaved DNA left (log2) [7] | uncleaved DNA left (log2) [8] | uncleaved DNA left (log2) [9] | uncleaved DNA left (log2) [10]
CGCAAAA | 0.212 | 0.225 | 0.0122 | 0.0288 | 0.119 | -0.445 | 0.0436 | 0.0726 | 0.0732 | 0.129
CGCGACA | -0.0524 | -0.0323 | 0.137 | 0.562 | -0.0147 | 1.04 | 0.11 | -0.141 | -0.0426 | 0.0419
GGCCTTG | 0.0486 | 0.137 | 0.237 | 0.626 | 0.125 | 1.34 | 0.205 | 0.084 | -0.00515 | 0.114
GGCTAAA | 0.0443 | 0.181 | 0.535 | 1.28 | 0.0872 | 1.76 | 0.181 | 0.139 | 0.118 | 0.252
CTAGTAT | 0.0574 | 0.112 | 0.257 | 0.0223 | 0.0352 | 0.0933 | 0.0668 | 0.0464 | 0.0796 | -0.0108
ACATCGC | 0.0276 | -0.191 | -0.826 | -0.679 | -0.0896 | -1.29 | 0.0912 | 0.0606 | -0.0915 | -0.119
AGAGTCA | -0.0051 | 0.0742 | 0.148 | 0.00571 | 0.0325 | 0.384 | -0.162 | -0.00552 | 0.0476 | -0.0107
GAACTCA | -0.0296 | 0.0223 | 0.225 | -0.56 | -0.0509 | 0.753 | 0.00829 | -0.0523 | -0.0108 | -0.00334
GTCCTAT | 0.0245 | 0.203 | 0.339 | 0.856 | 0.0716 | 1.75 | -0.031 | 0.116 | 0.116 | 0.158
TAGCTCC | 0.0798 | -0.00878 | 0.0775 | -0.0312 | 0.029 | 1.06 | -0.0868 | -0.0668 | 0.0654 | 0.0421
TGCGGTG | 0.0772 | 0.006 | -0.0378 | 0.388 | 0.0763 | 0.911 | 0.22 | 0.233 | 0.0451 | 0.00629
ATGAACG | 0.141 | 0.0512 | -0.594 | -0.113 | 0.151 | -0.87 | 0.246 | 0.0263 | -0.0624 | 0.0263
TATCCTT | -0.0664 | 0.00878 | -0.81 | -2.88 | 0.0853 | -0.189 | -1.53 | -0.0705 | -0.0583 | -0.155
ATTAGCG | -0.1 | -0.0581 | -0.563 | 0.98 | 0.00433 | -0.0409 | 0.0109 | -0.0971 | 0.0722 | -0.127
CGAGAGC | 0.0852 | 0.11 | 0.0307 | 0.352 | 0.154 | -0.302 | 0.136 | 0.151 | 0.0399 | 0.136
CCACGAC | -0.0262 | -0.224 | -0.0692 | -0.243 | -0.167 | -0.836 | -0.0119 | -0.0506 | -0.176 | -0.12
GATTGCT | -2.61 | -2.14 | -0.692 | -0.74 | 0.161 | -0.83 | -2.91 | 0.0444 | 0.227 | -0.0273
TGGACAC | -0.0119 | 0.0886 | 0.822 | 2.04 | -0.0134 | 2.28 | 0.239 | -0.0271 | 0.0471 | 0.0742
GCTGCTT | -0.0921 | -0.195 | -0.208 | -0.637 | -0.0682 | 0.187 | -0.145 | -0.0164 | -0.101 | -0.0317
AGCTTCT | -0.369 | -0.0893 | -0.0123 | -1.33 | -0.00615 | 0.105 | -2.43 | 0.0113 | 0.0279 | -0.072
CGTTATC | -0.0574 | 0.0599 | 0.18 | 0.33 | 0.104 | -0.219 | 0.145 | -0.0379 | 0.0131 | 0.126
GCGTCTG | 0.0686 | 0.195 | -0.00777 | 0.661 | 0.128 | 1.76 | 0.218 | 0.219 | -0.0856 | 0.0271
CAATCGT | -0.247 | 0.0931 | -3.4 | -2.9 | 0.101 | -2.4 | -2.12 | -1.75 | 0.067 | -1.72
ATCGATG | -0.00639 | -0.0693 | -0.237 | 0.409 | 0.157 | 0.505 | 0.0562 | -0.0422 | -0.264 | -0.0328
CTGAGCT | 0.222 | 0.109 | 0.0198 | -0.116 | 0.134 | -0.462 | 0.147 | 0.181 | 0.127 | 0.12
TAATCAG | -0.00339 | -0.0125 | -1.33 | -1.68 | 0.131 | -1.32 | 0.188 | 0.0852 | 0.067 | -0.0909
ACATGGC | -0.0615 | -0.0286 | -0.825 | -0.556 | 0.0115 | -1.17 | 0.0956 | -0.0253 | 0.0802 | -0.0838
CAACTTG | -0.0033 | -0.0771 | -0.483 | -1.63 | 0.0875 | -0.956 | -0.0388 | -0.0755 | -0.057 | -0.0106
AGATCAA | -0.0255 | 0.0737 | 0.491 | 0.838 | -0.0381 | 0.646 | -0.0289 | 0.00973 | -0.0171 | 0.129
GCCACAT | -0.0479 | 0.0342 | 0.62 | 1.36 | -0.0249 | 1.57 | 0.178 | -0.075 | 0.0934 | 0.118
